The text below walks through data of PMC4014707.

Chains of the proteins cited; added tags and fusions are not shown.
UniProt P42224: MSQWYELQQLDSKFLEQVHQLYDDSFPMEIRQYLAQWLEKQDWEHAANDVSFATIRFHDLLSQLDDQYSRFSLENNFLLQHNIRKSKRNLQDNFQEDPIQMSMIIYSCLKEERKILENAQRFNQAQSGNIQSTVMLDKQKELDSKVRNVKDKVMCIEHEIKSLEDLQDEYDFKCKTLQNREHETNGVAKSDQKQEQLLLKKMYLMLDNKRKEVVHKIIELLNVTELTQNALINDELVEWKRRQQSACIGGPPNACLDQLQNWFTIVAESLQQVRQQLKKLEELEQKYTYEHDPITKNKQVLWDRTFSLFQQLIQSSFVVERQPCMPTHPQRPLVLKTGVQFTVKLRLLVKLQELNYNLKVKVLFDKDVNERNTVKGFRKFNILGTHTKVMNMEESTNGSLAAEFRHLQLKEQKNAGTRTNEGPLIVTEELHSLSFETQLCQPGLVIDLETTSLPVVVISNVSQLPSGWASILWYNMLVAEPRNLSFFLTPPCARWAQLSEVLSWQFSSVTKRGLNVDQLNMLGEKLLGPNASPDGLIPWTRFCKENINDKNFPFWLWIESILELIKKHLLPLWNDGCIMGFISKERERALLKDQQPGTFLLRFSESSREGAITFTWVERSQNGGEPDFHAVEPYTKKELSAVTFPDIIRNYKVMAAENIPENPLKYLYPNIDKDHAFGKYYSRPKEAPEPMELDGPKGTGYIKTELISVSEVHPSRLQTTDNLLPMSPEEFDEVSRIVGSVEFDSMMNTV
UniProt P52630: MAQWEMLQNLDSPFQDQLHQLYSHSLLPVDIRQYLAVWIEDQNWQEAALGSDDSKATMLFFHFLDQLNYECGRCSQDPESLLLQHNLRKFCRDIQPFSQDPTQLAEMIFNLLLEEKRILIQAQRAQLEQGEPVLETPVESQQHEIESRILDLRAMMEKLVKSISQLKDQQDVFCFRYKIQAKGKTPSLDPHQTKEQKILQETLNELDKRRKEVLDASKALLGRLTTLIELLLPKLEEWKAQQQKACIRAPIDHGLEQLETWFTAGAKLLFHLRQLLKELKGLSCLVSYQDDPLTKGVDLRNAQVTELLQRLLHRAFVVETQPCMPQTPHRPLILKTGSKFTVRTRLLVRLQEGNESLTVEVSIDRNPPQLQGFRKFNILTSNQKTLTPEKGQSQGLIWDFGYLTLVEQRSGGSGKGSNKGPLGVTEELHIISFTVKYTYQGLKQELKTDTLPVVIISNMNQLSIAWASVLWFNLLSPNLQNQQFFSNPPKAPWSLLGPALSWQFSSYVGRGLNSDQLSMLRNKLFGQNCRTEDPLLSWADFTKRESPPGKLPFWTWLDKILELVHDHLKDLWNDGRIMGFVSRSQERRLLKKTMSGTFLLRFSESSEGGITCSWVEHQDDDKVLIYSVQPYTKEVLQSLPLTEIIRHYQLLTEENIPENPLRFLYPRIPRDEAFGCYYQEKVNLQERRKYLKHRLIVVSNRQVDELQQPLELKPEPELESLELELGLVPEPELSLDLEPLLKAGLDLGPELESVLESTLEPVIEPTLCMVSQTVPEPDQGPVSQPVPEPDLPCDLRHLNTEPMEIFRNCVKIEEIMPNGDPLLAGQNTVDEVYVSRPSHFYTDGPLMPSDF

These are yes or no findings as the source states them, for the method shown. In cells and extracts the contact can be indirect. Some entries that bind do so weakly or less than the wild type.

The target in test [1] is Δ345–491 C-terminal truncation mutant of IE1 (FLAG-tagged) (human cytomegalovirus (HCMV) strain AD169) (UniProt P13202). As to the kind of experiment: co-IP; MRC5 cells nucleofected with full length IE1 (FL), Δ345–491 IE1 (ΔAD) or empty vector, 48 hours later 100 U/mL IFNγ for 30 minutes; total lysate (25 mM Tris, 150 mM NaCl, 1% NP40) reacted with anti-IE1 antibody Mab810 at 4 °C overnight, protein A beads; blots for STAT1, IE1 and STAT2.

Test [2] deals with Full length FLAG-tagged IE1 of HCMV AD169 (human cytomegalovirus (HCMV) strain AD169) (UniProt P13202). The description is as above.
Test [3] has as its target Human cytomegalovirus immediate early 1 (IE1) protein, strain AD169, expressed from the infecting virus (human cytomegalovirus (HCMV) strain AD169) (UniProt P13202). Nature of the test: co-IP.
For test [4], the target named is Full length FLAG-tagged IE1 of HCMV AD169 (human cytomegalovirus (HCMV) strain AD169) (UniProt P13202). Nature of the test: co-IP.

On to “Signal transducer and activator of transcription 1 (STAT1) (from UniProt P42224 1-750)”, for which the binding entry in test [1], in test [2] and in test [3] was “no binding” in each case.
In the case of “Signal transducer and activator of transcription 2 (STAT2) (from UniProt P52630 1-851)”, the binding result in test [1] was “no binding”; in test [4], “binds”; in test [3] it was “binds”.
